Test results as given in patent publication US20260258137A1 (HARBOUR BIOMED SHANGHAI, published 2026).
Changes are numbered by the printed parent chain. Numbers in names are those of the source. Like-named read-outs stand apart in the source and are kept apart here. Values belong to the binder of their own block, whether it stands above or below them.

Experiments:
[1] = biological target: T1, Human TGFB1 (Novoprotein, CA59) (human, UniProt P01137 fragment, biotinylated with EZ-Link Sulfo-NHS-LC-Biotin in the BLI experiment of Example 19; not biotinylated in the ELISA of Example 16); assay: ELISA, coated human TGFB1
T1 construct: bought reagent; also called human TGFB1 protein; biotinylated human TGFB1

[2] = biological target: T2, human PD-L1 on CHO-K1 cells (CHO-K1/hPD-L1, Nanjing Genscript, M00543) (human, UniProt Q9NZQ7); assay: flow cytometry on CHO-K1/hPD-L1 cells
T2 construct: whole, on cells; also called CHO-K1 cells overexpressing human PD-L1; human PD-L1 on the cell surface

[3] = biological target: T2, human PD-L1 on CHO-K1 cells …; assay: flow cytometry competition: biotin-hPD-1 binding to CHO-K1/hPD-L1 cells
[4] = biological target: T3, human TGFB1 protein (R&D Systems, 240-B/F) (human, UniProt P01137 fragment); assay: cell-based or functional assay
[5] = biological target: T3, human TGFB1 protein (R&D Systems, …); assay: cell-based or functional assay; remark: listed apart in the source
[6] = biological target: T1, Human TGFB1 (Novoprotein, CA59); assay: ELISA, coated human TGFB1; remark: listed apart in the source
T1 sequence (P01137 279-390 limits assumed): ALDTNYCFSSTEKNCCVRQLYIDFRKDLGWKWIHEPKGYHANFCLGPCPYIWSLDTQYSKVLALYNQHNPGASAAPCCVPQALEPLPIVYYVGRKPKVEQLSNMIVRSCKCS

[7] = biological target: T2, human PD-L1 on CHO-K1 cells …; assay: flow cytometry on CHO-K1/hPD-L1 cells; remark: listed apart in the source
[8] = biological target: T1, Human TGFB1 (Novoprotein, CA59); assay: BLI (Octet), biotinylated hTGFB1 on SA sensor, 1:1 global fit
[9] = biological target: T2, human PD-L1 on CHO-K1 cells …; assay: flow cytometry competition: biotin-hPD-1 binding to CHO-K1/hPD-L1 cells; remark: listed apart in the source
[10] = biological target: T4, human PD-L1 protein with histidine tag (NovoProtein, C315) (human, UniProt Q9NZQ7 fragment, limits assumed, biotinylated with EZ-Link Sulfo-NHS-LC-Biotin in the epitope competition experiments (Examples 8 and 20); not biotinylated in the affinity experiments); assay: BLI (Octet), fusion protein on AHC sensor, antigen 12.5-0.78 nM, 1:1 global fit
T4 construct: bought reagent; also called biotinylated PD-L1 protein; not shown: histidine tag

EC50 [1]: 1.33 nM | EC50 [2]: 0.852 nM | MFI maximum value [2]: 43400 MFI | IC50 [3]: 0.399 nM
B1: PR002247 (other)
heavy: EVQLVESGGGLVQPGGSLRLSCAASGFTFSSYWMSWVRQAPGKGLEWVANIKQEGSEKYYGDSVKGRFTISRDNAKNSLYLQMNSLRAEETAVYYCARDRAVAGASDIWGQGTMVTVSSASTKGPSVFPLAPSSKSTSGGTAALGCLVKDYFPEPVTVSWNSGALTSGVHTFPAVLQSSGLYSLSSVVTVPSSSLGTQTYICNVNHKPSNTKVDKKV[letters of human IgG1 Fc omitted]GGGSGGGGSGGGGSGGGGSGIPPHVQKSVNNDMIVTDNNGAVKFPQLCKFCDVRFSTCDNQKSCMSNCSITSICEKPQEVCVAVWRKNDENITLETVCHDPKLPYHDFILEDAASPKCIMKEKKKPGETFFMCSCSSDECNDNIIFSEEYNTSNPD
light: DIQMTQSPSTLSASVGDRVTITCRASQSISSWLAWYQQKPGKAPNLLIYKASSLETGVPSRFSGSGSGTEFTLTISSLQPDDFATYYCQQYYGYSRTFGQGTKVEIKRTVAAPSVFIFPPSDEQLKSGTASVVCLLNNFYPREAKVQWKVDNALQSGNSQESVTEQDSKDSTYSLSSTLTLSKADYEKHKVYACEVTHQGLSSPVTKSFNRGEC
notes: anti-PD-L1 / TGFBRII bifunctional fusion protein: PR000267 heavy chain (hIgG1) - (G4S)4 - human TGFBRII extracellular region 24-159

inhibitory activity and IC50 against PR002466 and TGFB antibody [4]: 8 times | IC50 (nM), Smad SEAP reporter in HEK-Blue TGFB cells [5]: 0.0103 nM | Maximum inhibition rate (%), Smad SEAP reporter in HEK-Blue TGFB cells [5]: 112% | EC50 [6]: 1.49 nM | OD Maximum value [6]: 1.84 OD | EC50 [7]: 0.515 nM | MFI maximum value [7]: 45400 MFI | Kd [8]: 0.0781 nM | koff [8]: 0.00025 s⁻¹ | kon [8]: 3.19e+06 M⁻¹ s⁻¹ | IC50 [9]: 0.311 nM | Kd [10]: 0.0605 nM | koff [10]: 4.5e-05 s⁻¹ | kon [10]: 744000 M⁻¹ s⁻¹
B2: PR001902 (other)
heavy: EVQLVESGGGLVQPGGSLRLSCAASGFTFSSYWMSWVRQAPGKGLEWVANIKQEGSEKYYVDSVKGRFTISRDNAKNSLYLQMNSLRAEDTAVYYCARDRAVAGAFDIWGQGTMVTVSSASTKGPSVFPLAPSSKSTSGGTAALGCLVKDYFPEPVTVSWNSGALTSGVHTFPAVLQSSGLYSLSSVVTVPSSSLGTQTYICNVNHKPSNTKVDKKV[letters of human IgG1 Fc omitted]PPHVQKSVNNDMIVTDNNGAVKFPQLCKFCDVRFSTCDNQKSCMSNCSITSICEKPQEVCVAVWRKNDENITLETVCHDPKLPYHDFILEDAASPKCIMKEKKKPGETFFMCSCSSDECNDNIIFSEEYNTSNPD
light: B1 light with I21V, S30Y, S31I, Y94S
notes: anti-PD-L1 / TGFBRII bifunctional fusion protein: PR000265 heavy chain (hIgG1) fused without linker to human TGFBRII extracellular region 24-159
